Some of the results follow. At the low end of the ranking the order means little. Measured with an extract: partners may take part in the binding.

73 sequences from publication PMC10726135 can be followed below.

The target of the experiment is T1, HNF4alpha2 (COS-7 nuclear extract) (UniProt P41235).
T1 sequence: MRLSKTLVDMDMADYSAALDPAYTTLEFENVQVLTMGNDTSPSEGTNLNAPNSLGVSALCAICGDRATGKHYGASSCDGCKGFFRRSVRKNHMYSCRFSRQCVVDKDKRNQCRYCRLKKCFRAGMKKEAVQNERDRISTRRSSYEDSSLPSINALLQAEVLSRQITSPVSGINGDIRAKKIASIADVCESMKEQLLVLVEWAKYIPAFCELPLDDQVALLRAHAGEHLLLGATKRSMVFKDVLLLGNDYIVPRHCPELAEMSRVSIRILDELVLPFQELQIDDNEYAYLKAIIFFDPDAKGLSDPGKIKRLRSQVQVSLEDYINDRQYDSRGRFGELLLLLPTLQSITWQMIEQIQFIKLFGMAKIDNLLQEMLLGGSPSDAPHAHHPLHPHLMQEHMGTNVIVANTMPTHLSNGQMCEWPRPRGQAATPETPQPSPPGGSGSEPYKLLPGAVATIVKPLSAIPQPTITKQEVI
Put plainly: protein-binding microarray. The conditions noted are these: COS-7 nuclear extract on double-stranded Agilent 4x180k PBM; binding buffer, salt, pH and temperature not given; high values mean tight binding; double strand, one strand shown; sequences stand for … in …GCCTAGGGAGATTAGAGTATCGGTCGA
Regarding AGAGATTAAAGGTCAAGCCCAACCAAAGTA, the binding signal (log2 normalized intensity) amounted to 3.11.

AAGGAAGGTGGGGGCCGCCCATTGGGATCC: the binding signal (log2 normalized intensity) was -1.1.

For the sequence GCCCTTTGGATTTAGGCAGTTTTTGATCAA, the binding signal (log2 normalized intensity) amounted to 1.83.

For CCAGGGAACAAGGGGTGGATCTCTGTCATG, the binding signal (log2 normalized intensity) was -0.992.

For the sequence AGAGCAGGTGCTCGGTGAGTGCTTCTTGAA, the binding signal (log2 normalized intensity) was -1.09.

Take ACTGCACACCGTCCAGAGGCTCCAAAGGAC: the binding signal (log2 normalized intensity) was -0.959.

In the case of AAAAGGCCGTTCAAAGGCAGCCTTCGTTTG, the binding signal (log2 normalized intensity) is -1.15.

On to GGCAGGGCCAGATAAAGCAGGTTGTACCTT, for which the binding signal (log2 normalized intensity) amounted to 2.4.

Regarding ATGATACCCCAGAGTACAGCACTTTGGCGT, the binding signal (log2 normalized intensity) was 1.53.

With GCCACCCTCCTCTCTGGGTCAAAGGTCATC, the binding signal (log2 normalized intensity) was 9.58.

In the case of GGGAAACACAGACTCCAAAGAATGGAAGGC, the binding signal (log2 normalized intensity) was -0.871.

AATTTGACCTCATTTGCTCCCAGTGCACAC: the binding signal (log2 normalized intensity) is 0.992.

AGGGCAAGGGACAGGGGCCCAAGATAAAGG: the binding signal (log2 normalized intensity) was -0.869.

Regarding GTTGACCACCTGCCCCAGGAATGCCTTTTC, the binding signal (log2 normalized intensity) amounted to 1.99.

With CACTTCCCGAGTGAGGCAATGCCTCGCCCT, the binding signal (log2 normalized intensity) was -1.29.

Turning to ACCAAGGGTCATGCTGGTCTCCTTGCCCCA, the binding signal (log2 normalized intensity) turned out to be 1.74.

In the case of GGGTGGCCCTCTCCCGGGGAGGTCAACCAG, the binding signal (log2 normalized intensity) was found to be 2.58.

Turning to AGAAGCCAGGGACCAGGAAGGCAGTAAGAG, the binding signal (log2 normalized intensity) was -1.17.

GAATGCTTGTCTAGTAATTGCTACTTCCGG: the binding signal (log2 normalized intensity) is -0.366.

As for TGATGTTAACACAAGTTATTACCGTGATGT, the binding signal (log2 normalized intensity) worked out at 1.48.

For the sequence AGTTTTTACTGGACTTGATCCATTCTACCC, the binding signal (log2 normalized intensity) turned out to be 1.04.

Take AGAAAACGTTCACGTCTCAAGCTTCAGGAG: the binding signal (log2 normalized intensity) is -1.12.

As to CCCTCCCACGCACTCGCCTGACTCCCTGAC, the binding signal (log2 normalized intensity) came to 2.16.

On to CAAGCCCCTGACCAAGGGTCATGCTGGTCT, for which the binding signal (log2 normalized intensity) stood at 2.29.

For GGACTTGGTAAAGTCAATAATCTAGAAACC, the binding signal (log2 normalized intensity) was -1.15.

In the case of ACACTTAGAGATAAGGTAACAGGCCAAAGG, the binding signal (log2 normalized intensity) was 0.838.

With GGTGTGGGGGTGGAGAAGGAAGGGGAAGAT, the binding signal (log2 normalized intensity) was -1.07.

As to ACCCAAGCGGCCATTTACTGACTAAAGGTT, the binding signal (log2 normalized intensity) stood at 1.18.

GAATTTTGGACAAGGTAACCCCCAACATTC: the binding signal (log2 normalized intensity) came out at 3.38.

Regarding GAAAATGCAAGGAAATGGATTGCCTCCTAA, the binding signal (log2 normalized intensity) was -1.

Regarding GTTGAATGGACGGACAGGTAACGTAAACAA, the binding signal (log2 normalized intensity) was -1.22.

As for CTTCCCAGCTGCTGGTCAAAGGGCATTACT, the binding signal (log2 normalized intensity) is 4.94.

GACCCCTTTCATGAATAAATGACATAGTGA: the binding signal (log2 normalized intensity) turned out to be 1.7.

Regarding CTTCTCTTTGAGTCCCAATCCCCCATCTAT, the binding signal (log2 normalized intensity) came out at 4.08.

On to GGATGTGTGATCTTGGGTAAGCCACTGAAC, for which the binding signal (log2 normalized intensity) amounted to 1.39.

For the sequence ATATGTCTTAAGCTAACATGTACAGTATTG, the binding signal (log2 normalized intensity) came out at 1.07.

As to GTGGCCAGGCTGCGTTTCAAAGCCAGGACT, the binding signal (log2 normalized intensity) was -1.13.

On to TTTTGTGTTAGAGGGTGGTGGGTGAAGGAT, for which the binding signal (log2 normalized intensity) was found to be 1.47.

Turning to TTCATAACCAAAGGATTATTACATGTTTAC, the binding signal (log2 normalized intensity) is 0.956.

With AATACTCTGAGTAAACACAGACTTTGGAAT, the binding signal (log2 normalized intensity) is 3.65.

Take AGAAGCTCCAGAAATACAGAAGCTGCTCTA: the binding signal (log2 normalized intensity) was -1.18.

For CTATCACTGGGAGATAATGCACTGGTGACT, the binding signal (log2 normalized intensity) came to 0.519.

With TTACAGGTTGCAGTAAAGAAACTGGCTAAA, the binding signal (log2 normalized intensity) is -1.07.

As for GAAAACAGAGAAGCCGTGGTGCTGTCCAAG, the binding signal (log2 normalized intensity) was -1.15.

For GACATTCCAGCCACTAAGAAGCCCAAGGTT, the binding signal (log2 normalized intensity) is -1.11.

Take GGAAAGATCAGCTGAAAACTATGCATGCTG: the binding signal (log2 normalized intensity) is -1.01.

For the sequence AGGACGTCAGGCAGAGAGGGACTCTGACCC, the binding signal (log2 normalized intensity) amounted to 5.03.

Take AATCAGGAGCAAAGGTTGGGGGTGGGGAGG: the binding signal (log2 normalized intensity) was -0.62.

Regarding CCACTGAGGTCAAGATAAGATACGAAGGGT, the binding signal (log2 normalized intensity) is -0.974.

Take CCAGTTGAGTGCAAAGTCCCTAGAAGGGAT: the binding signal (log2 normalized intensity) was 1.44.

Turning to ACTCTCAATTCAAGTATGCACCCTTATCAG, the binding signal (log2 normalized intensity) was found to be 0.0675.

Turning to GGTAGAGGGACACTGATAACATGAGGATAC, the binding signal (log2 normalized intensity) was -1.2.

GTGAACTGTGACCTGATGACAAAGGTGAGA: the binding signal (log2 normalized intensity) came to 1.6.

Consider TCCAAATACGATAATGTCAAACATCTTATA, for which the binding signal (log2 normalized intensity) was -1.15.

With ACCCCTGAATTGGTCATAATTCTCAAACTT, the binding signal (log2 normalized intensity) worked out at 0.56.

For TTTGCGGCCATCTAGCTACAGGAGAACAAA, the binding signal (log2 normalized intensity) is -1.13.

Turning to TAAATGAGAAGAAATGATGGGTGCCACTTC, the binding signal (log2 normalized intensity) was -1.13.

For the sequence ACAGCACTGACCTTTGAGAGTCAACACTGA, the binding signal (log2 normalized intensity) came out at 2.58.

For TGAGGCCAGTTTTCCCAAAGGAGCTTTATT, the binding signal (log2 normalized intensity) is -1.06.

On to GTTCAGGGAAGAGGGCACTCAGGCTCTCAG, for which the binding signal (log2 normalized intensity) was -1.05.

As for AAGATGCAACCCCGTTTACTTTTGTACACA, the binding signal (log2 normalized intensity) turned out to be 1.6.

Regarding AGCTGTGTGCTCCTGTAGAATGACCCCCTG, the binding signal (log2 normalized intensity) is 5.17.

For the sequence GCATTAACATCAACATGGACTTTGAGTCAT, the binding signal (log2 normalized intensity) came to 6.21.

Regarding AGAGCAAGGGTCCAGATTAGAGCACAATGT, the binding signal (log2 normalized intensity) amounted to 0.344.

As for CCAGCTGGTAAGTGCAAGGCCCAGCTAGAA, the binding signal (log2 normalized intensity) was -1.12.

As to AGTAAGCATGCCTTACCATTGCTTTCTTCC, the binding signal (log2 normalized intensity) is -1.18.

GTGGTCCTAAAATTGACCTTTGATCACTCA: the binding signal (log2 normalized intensity) came to 9.68.

GACCTTCACCAGATACTGAATCTCCCAGTG: the binding signal (log2 normalized intensity) is -1.18.

For CACACCTCCCTTGCACCAGTTTCTCAACAG, the binding signal (log2 normalized intensity) was -1.25.

As for AGCCAAGGAGAGAGGCCTCTAGATAAACCA, the binding signal (log2 normalized intensity) was -1.15.

With TGCAAACATTGGTTGCAAAAACAATCAGGG, the binding signal (log2 normalized intensity) was -1.29.

Consider GCTTTTGGGCAGAGACTATGTGGTTTTGTA, for which the binding signal (log2 normalized intensity) came out at 1.54.

As for GACCTCTGGACCTCATCTTCCTCCCCAATA, the binding signal (log2 normalized intensity) came to 4.37.
